Counter-ions that a name gives are not always drawn. In all, about 2,000 compounds were measured (“fractional viability relative to vehicle”: median about 0.92, lowest 2% from about 0.11 on). Some of the results follow.
Tested on: TYKNU
Assay: fractional viability relative to vehicle; TYKNU is a high-grade serous ovarian cancer line; higher = less growth inhibition
Conditions: 72 h, genotype: OPA1 knockout (sgOPA1 #2)
Method in brief: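 Drug treatment lasted 72 h, with cells grown at 37 °C in 5% CO2 in RPMI 1640 supplemented with 10% FBS. Beforehand, TYKNU control cells or their lentiCRISPRv2 knockout derivatives had been seeded at 500 cells per well into drug-stamped 384-well plates carrying a ~2100-compound library at 2 or 10 μM, in duplicate. Viability came from Cell Titer Glo luminescence, with averaged duplicate treatment wells normalised to duplicate control wells in the same plate position.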

N#C[C@H](O[C@@H]1O[C@H](C(=O)O)[C@@H](O)[C@H](O)[C@H]1O)c1ccccc1 [Laetrile]
fractional viability (2uM): 1.07
fractional viability (10uM): 0.81

C[C@]12CCC(=O)C(O)=C1CC[C@@H]1[C@@H]2CC[C@]2(C)C(=O)CC[C@@H]12 [Formestane]
fractional viability (2uM): 1.01
fractional viability (10uM): 0.829

CCOc1ccccc1-n1c(C(C)N2CCN(C(=O)COc3ccc(Cl)cc3)CC2)nc2ccccc2c1=O (stereo unspecified) [Erastin]
fractional viability (2uM): 0.45
fractional viability (10uM): 0.0976

CN1[C@@H]2CC[C@H]1C[C@@H](OC(=O)C(CO)c1ccccc1)C2 (stereo partly specified) [Atropine sulfate monohydrate]
fractional viability (2uM): 1.12
fractional viability (10uM): 0.997

CNCC(O)c1ccc(O)cc1 (stereo unspecified) [Synephrine HCl]
fractional viability (2uM): 0.999
fractional viability (10uM): 0.858

CNCC(O)c1ccc(O)cc1 (stereo unspecified) [Synephrine]
fractional viability (2uM): 1.12
fractional viability (10uM): 0.926

CCc1c(C(=O)C(N)=O)c2c(OCC(=O)O)cccc2n1Cc1ccccc1
fractional viability (2uM): 1.1
fractional viability (10uM): 0.9

Cc1sc2c(c1C)C(c1ccc(Cl)cc1)=N[C@@H](CC(=O)Nc1ccc(O)cc1)c1nnc(C)n1-2
fractional viability (2uM): 0.634
fractional viability (10uM): 0.619

COc1ccc(C(CN(C)C)C2(O)CCCCC2)cc1 (stereo unspecified) [Venlafaxine]
fractional viability (2uM): 1.21
fractional viability (10uM): 1

CN(C)C(=O)Oc1ccc[n+](C)c1 [Pyridostigmine Bromide]
fractional viability (2uM): 1.05
fractional viability (10uM): 1.07

CN1CCN(c2nc3ccccc3nc2Cl)CC1
fractional viability (2uM): 1.15
fractional viability (10uM): 0.988

Cc1cc2c(C(C)C)c(O)c(O)c(C=O)c2c(O)c1-c1c(C)cc2c(C(C)C)c(O)c(O)c(C=O)c2c1O [Gossypol]
fractional viability (2uM): 1.03
fractional viability (10uM): 0.643

CC(C)NCC(O)c1ccccc1Cl (stereo unspecified) [Clorprenaline HCl]
fractional viability (2uM): 0.911
fractional viability (10uM): 0.968

C[C@@H]1[C@H](O)[C@@H](C)/C=C/C=C/CC/C=C/C=C/C=C/C=C/[C@H](O[C@H]2O[C@@H](C)[C@H](O)[C@@H](N)[C@H]2O)C[C@@H]2O[C@](O)(C[C@@H](O)[C@H](O)CC[C@@H](O)C[C@@H](O)C[C@@H](O)CC(=O)O[C@H]1C)C[C@H](O)[C@H]2C(=O)O [Nystatin (Fungicidin)]
fractional viability (2uM): 1.17
fractional viability (10uM): 0.963

O=c1[nH]c2ccc(Cl)cc2c(N[C@@H]2CN3CCC2CC3)c1-c1nc2ccccc2[nH]1
fractional viability (2uM): 0.352
fractional viability (10uM): 0.14

CCN(CC)C(=O)c1ccc(C2=CC3(CCNCC3)Oc3cccc(O)c32)cc1
fractional viability (2uM): 1.15
fractional viability (10uM): 0.835

Cc1sc2c(c1C)C(c1ccc(Cl)cc1)=N[C@@H](CC(=O)OC(C)(C)C)c1nnc(C)n1-2
fractional viability (2uM): 0.757
fractional viability (10uM): 0.641

Cn1c(COP(=O)(NCCBr)NCCBr)cnc1[N+](=O)[O-]
fractional viability (2uM): 1.39
fractional viability (10uM): 1.12

CCc1cc2c(s1)-n1c(C)nnc1CN=C2c1ccccc1Cl [Etizolam]
fractional viability (2uM): 0.761
fractional viability (10uM): 0.887

OC(c1ccccc1)(c1ccccc1)C1CCNCC1 [Azacyclonol]
fractional viability (2uM): 1.05
fractional viability (10uM): 0.983

COc1cc(OC)c(OC)cc1C=O [Asaraldehyde]
fractional viability (2uM): 1.16
fractional viability (10uM): 1.15

CCC1(C)CC(=O)NC(=O)C1 [Bemegride]
fractional viability (2uM): 1.11
fractional viability (10uM): 0.966

Cc1ccccc1-n1c(Cn2ncc3c(N)ncnc32)nc2cccc(C)c2c1=O
fractional viability (2uM): 0.996
fractional viability (10uM): 0.903

CCN(Cc1ccc(Cl)nc1)/C(=C/[N+](=O)[O-])NC [Nitenpyram]
fractional viability (2uM): 0.837
fractional viability (10uM): 0.769

C/C(O)=C(\C#N)C(=O)Nc1cc(Br)ccc1Br
fractional viability (2uM): 0.71
fractional viability (10uM): 0.714

C=C1C[C@@H]2[C@H](CC[C@]3(C)C(=O)CC[C@@H]23)[C@@]2(C)C=CC(=O)C=C12 [Exemestane]
fractional viability (2uM): 1.17
fractional viability (10uM): 1.19

C[C@H]1CNCCc2ccc(Cl)cc21 [Lorcaserin HCl]
fractional viability (2uM): 1.04
fractional viability (10uM): 1.02

CN1C(=O)CCS(=O)(=O)C1c1ccc(Cl)cc1 (stereo unspecified) [Chlormezanone]
fractional viability (2uM): 1.08
fractional viability (10uM): 0.891

COc1cc(C)[nH]c(=O)c1CNC(=O)c1c(C)n([C@H](C)C2CCOCC2)c2ccccc12
fractional viability (2uM): 0.863
fractional viability (10uM): 0.859

c1ccc2c(c1)sc1ccccc12 [Dibenzothiophene]
fractional viability (2uM): 0.95
fractional viability (10uM): 0.884

O=P1(N(CCCl)CCCl)NCCCO1 (stereo unspecified) [Cyclophosphamide Monohydrate]
fractional viability (2uM): 1.21
fractional viability (10uM): 0.837

CCCCCCCCCCCCCCCC[n+]1ccccc1 [Cetylpyridinium Chloride]
fractional viability (2uM): 0.577
fractional viability (10uM): 0.166

Cc1ccc(-n2nccn2)c(C(=O)N2CCN(c3nc4cc(Cl)ccc4o3)CC[C@H]2C)c1 [Suvorexant (MK-4305)]
fractional viability (2uM): 1.08
fractional viability (10uM): 0.917

CCCN1CCO[C@@H]2c3cc(O)ccc3OC[C@H]21
fractional viability (2uM): 0.95
fractional viability (10uM): 1.01

COc1ccc(CC2NCCc3cc(OC)c(OC)cc32)cc1OC (stereo unspecified) [Tetrahydropapaverine HCl]
fractional viability (2uM): 0.915
fractional viability (10uM): 0.866

c1ccc([C@@H]2C[C@H]2NC2CCNCC2)cc1
fractional viability (2uM): 0.959
fractional viability (10uM): 0.751

C[C@]12CC[C@H](O)CC1=CC[C@@H]1[C@@H]2CC[C@]2(C)C(=O)CC[C@@H]12 [Dehydroepiandrosterone (DHEA)]
fractional viability (2uM): 0.991
fractional viability (10uM): 0.897

O=[N+]([O-])c1ncc[nH]1 [Azomycin]
fractional viability (2uM): 0.902
fractional viability (10uM): 0.589

CC(C)OC(=O)[C@H](C)N[P@](=O)(CO[C@H](C)Cn1cnc2c(N)ncnc21)Oc1ccccc1 [Tenofovir Alafenamide (GS-7340)]
fractional viability (2uM): 1.03
fractional viability (10uM): 0.922

CC[C@H](C)[C@@H]([C@@H](CC(=O)N1CCC[C@H]1[C@H](OC)[C@@H](C)C(=O)N[C@H](C)[C@@H](O)c1ccccc1)OC)N(C)C(=O)[C@@H](NC(=O)[C@@H](NC)C(C)C)C(C)C [Monomethyl auristatin E (MMAE)]
fractional viability (2uM): 0.293
fractional viability (10uM): 0.226

CCOC(=O)c1cncn1[C@H](C)c1ccccc1 [Etomidate]
fractional viability (2uM): 1.25
fractional viability (10uM): 0.91

CC(O)(CS(=O)(=O)c1ccc(F)cc1)C(=O)Nc1ccc(C#N)c(C(F)(F)F)c1 (stereo unspecified) [Bicalutamide]
fractional viability (2uM): 1.25
fractional viability (10uM): 1.18

CCN1CCN(C(=O)Cc2ccc(Nc3ncc(F)c(Nc4ccc(C(=O)Nc5ccccc5Cl)cc4)n3)cc2)CC1 [Aurora A Inhibitor I]
fractional viability (2uM): 1.03
fractional viability (10uM): 0.0801

O=c1cccc2n1C[C@@H]1CNC[C@H]2C1 [Cytisine]
fractional viability (2uM): 1.09
fractional viability (10uM): 1.1

Cc1cc(C(C#N)c2ccc(Cl)cc2)c(Cl)cc1NC(=O)c1cc(I)cc(I)c1O (stereo unspecified) [Closantel Sodium]
fractional viability (2uM): 0.919
fractional viability (10uM): 1.04

Cc1cc(C(C#N)c2ccc(Cl)cc2)c(Cl)cc1NC(=O)c1cc(I)cc(I)c1O (stereo unspecified) [Closantel]
fractional viability (2uM): 0.998
fractional viability (10uM): 0.919

O=C(O)c1nn(Cc2ccc(Cl)cc2Cl)c2ccccc12 [Lonidamine]
fractional viability (2uM): 0.911
fractional viability (10uM): 1.06

CC(C)(C)c1cc(C=C(C#N)C#N)cc(C(C)(C)C)c1O [Tyrphostin 9]
fractional viability (2uM): 0.524
fractional viability (10uM): 0.396

CC(NC(C)(C)C)C(=O)c1cccc(Cl)c1 (stereo unspecified) [Amfebutamone HCl]
fractional viability (2uM): 0.863
fractional viability (10uM): 0.854

CC(C)(C)c1cc(C=C(C#N)C#N)cc(Br)c1O
fractional viability (2uM): 0.899
fractional viability (10uM): 0.761

CC(C)[C@]12O[C@H]1[C@@H]1O[C@]13[C@]1(O[C@H]1C[C@H]1C4=C(CC[C@@]13C)C(=O)OC4)[C@@H]2O [Triptolide (PG490)]
fractional viability (2uM): 0.572
fractional viability (10uM): 0.473

O=C1CC[C@@]2(O)[C@H]3Cc4ccc(O)c5c4[C@@]2(CCN3CC2CC2)[C@H]1O5 [Naltrexone HCl]
fractional viability (2uM): 1.07
fractional viability (10uM): 1.12

Cn1c(CCCC(=O)O)nc2cc(N(CCCl)CCCl)ccc21 [Bendamustine HCl]
fractional viability (2uM): 1.1
fractional viability (10uM): 1.11

[O-][n+]1ccccc1[S-].[O-][n+]1ccccc1[S-].[Zn+2] [Zinc Pyrithione]
fractional viability (2uM): 0.0671
fractional viability (10uM): 0.0336

Cc1sc2c(c1C)C(c1ccc(Cl)cc1)=N[C@@H](CC(N)=O)c1nnc(C)n1-2
fractional viability (2uM): 0.675
fractional viability (10uM): 0.589

N[C@@H]1C[C@H]1c1ccccc1 [Tranylcypromine (2-PCPA) HCl]
fractional viability (2uM): 0.95
fractional viability (10uM): 1.01

CN(C)CCc1ccc(O)cc1 [Hordenine]
fractional viability (2uM): 1.08
fractional viability (10uM): 0.824

C/C(=C\c1csc(C)n1)[C@@H]1C[C@@H]2O[C@@H]2CCC[C@H](C)[C@H](O)[C@@H](C)C(=O)C(C)(C)[C@@H](O)CC(=O)O1 [Epothilone A]
fractional viability (2uM): 0.475
fractional viability (10uM): 0.629

COC1=C[C@@H]2[C@@H]3Cc4ccc(OC)c(O)c4[C@]2(CCN3C)CC1=O [Sinomenine]
fractional viability (2uM): 0.995
fractional viability (10uM): 0.891

COc1ccc(N(C(=O)Oc2c(C)cccc2C)c2ccnc(Nc3ccc(N4CCN(C)CC4)cc3)n2)c(OC)c1
fractional viability (2uM): 0.923
fractional viability (10uM): 0.895

CN1[C@@H]2C[C@@H](OC(=O)[C@H](CO)c3ccccc3)C[C@H]1[C@@H]1O[C@@H]12 [Scopolamine HBr]
fractional viability (2uM): 1.29
fractional viability (10uM): 0.892

Cc1cccc(C)c1NC(=O)CN1CCCC1=O [Nefiracetam]
fractional viability (2uM): 0.87
fractional viability (10uM): 0.978

Cc1cccc(Cc2c[nH]cn2)c1C [Detomidine HCl]
fractional viability (2uM): 0.976
fractional viability (10uM): 0.944

Cn1cc(C2=C(c3cn(C4CCN(Cc5ccccn5)CC4)c4ccccc34)C(=O)NC2=O)c2ccccc21
fractional viability (2uM): 1.04
fractional viability (10uM): 0.99

C[C@@H]1CC[C@@]2(OC1)O[C@H]1C[C@H]3[C@@H]4CC=C5C[C@@H](O[C@@H]6O[C@H](CO)[C@@H](O[C@@H]7O[C@@H](C)[C@H](O)[C@@H](O)[C@H]7O)[C@H](O)[C@H]6O[C@@H]6O[C@@H](C)[C@H](O)[C@@H](O)[C@H]6O)CC[C@]5(C)[C@H]4CC[C@]3(C)[C@H]1[C@@H]2C [Dioscin]
fractional viability (2uM): 0.289
fractional viability (10uM): 0.0918

C=CCN1CC[C@]23c4c5ccc(O)c4O[C@H]2C(=O)CC[C@@]3(O)[C@H]1C5 [Naloxone HCl]
fractional viability (2uM): 0.816
fractional viability (10uM): 0.957

O=C(NCC1CCOCC1)c1cnc(Nc2ccc(Cl)cc2Cl)nc1C(F)(F)F
fractional viability (2uM): 0.956
fractional viability (10uM): 0.913

CC(=O)O[C@H]1C[C@@H]2CC[C@@H]3[C@H](CC[C@@]4(C)[C@H]3C[C@H]([N+]3(C)CCCCC3)[C@@H]4OC(C)=O)[C@@]2(C)C[C@@H]1[N+]1(C)CCCCC1 [Pancuronium dibromide]
fractional viability (2uM): 1
fractional viability (10uM): 0.976

Reference: the supplement of paper PMC5919970
